Among all 200,000 compounds or so, about 4,500 (2.2%) were called active. The inconclusive results got no clear call from the source; some entries with a clear call stand among them for comparison. Calls come from the whole dose curve; as a rule, active = well fitted inhibition curve with a large enough effect; inconclusive = small, poorly fitted or top-dose-only effect, or effect the other way; inactive = flat fitted curve, though single readings scatter. A potency beside an inconclusive call is a rough fit, not a confirmed value.
Molecular target: Cruzipain (Trypanosoma cruzi) (UniProt P25779)
UniProt P25779, sequence (P25779 whole entry, looked up): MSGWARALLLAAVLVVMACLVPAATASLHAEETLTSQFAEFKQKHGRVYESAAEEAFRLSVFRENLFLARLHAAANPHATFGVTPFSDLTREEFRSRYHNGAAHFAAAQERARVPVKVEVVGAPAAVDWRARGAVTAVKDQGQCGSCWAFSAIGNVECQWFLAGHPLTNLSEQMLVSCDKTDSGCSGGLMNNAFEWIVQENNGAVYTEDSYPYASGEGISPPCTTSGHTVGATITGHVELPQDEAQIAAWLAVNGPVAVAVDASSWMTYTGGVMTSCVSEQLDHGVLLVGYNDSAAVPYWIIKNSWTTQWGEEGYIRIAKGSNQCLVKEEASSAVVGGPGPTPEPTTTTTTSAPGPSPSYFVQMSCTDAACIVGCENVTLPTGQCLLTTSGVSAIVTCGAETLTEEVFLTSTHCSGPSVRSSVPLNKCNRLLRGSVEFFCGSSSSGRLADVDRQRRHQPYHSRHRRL
Test: qHTS Assay for Promiscuous and Specific Inhibitors of Cruzain (without detergent); note: nearly all actives have a fitted effect of over 40% in size;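 for max response, negative = inhibition: plate controls were enzyme without inhibitor for no effect and buffer without enzyme for full effect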
Conditions: purified cruzain, Z-FR-AMC fluorescence, no detergent
Outline: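 Detergent-free condition (0.00005% Triton X-100) in acetate buffer pH 5.5 with DTT. 1.5 nM enzyme and compound were pre-mixed 15 min, then 2 uM Z-FR-AMC substrate added; reaction progress from fluorescence change between first and third reads (60 s).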
Potency is the fitted concentration of half-maximal effect; tags give direction and shape of the fitted curve.

| Structure (SMILES) | max response, negative = inhibition | Potency |
| --- | --- | --- |
| CCc1ccc(-n2nc(C)c3c(C)cc(=O)n(CC(=O)N(CC)Cc4ccccc4)c32)cc1 | inactive: 8.85% | – |
| Cc1cccc(C(=O)NC(NC(=S)Nc2ccc(S(N)(=O)=O)cc2)C(Cl)(Cl)Cl)c1 (configuration not stated) | – | active: 25.1 µM |
| C[C@@]12CC[C@H]3[C@H](CCC4=CC(=O)CC[C@H]43)[C@H]1CC[C@H]2OC1(O)C(=O)c2ccccc2C1=O | inactive: 1.4% | – |
| CCc1ccc(C(=O)c2cn(Cc3ccccc3)c3cc(OC)c(OC)cc3c2=O)cc1 | – | inconclusive: 39.8 µM [activator, single point] |
| Cc1ccccc1N=Nc1ccc(O)c2ncccc12 | – | active: 20 µM |
| Cc1ccc(CCNC(=O)C2CCCN(S(=O)(=O)c3ccc4c(c3)oc(=O)n4C)C2)cc1 (configuration not stated) | – | inconclusive: 6.31 µM [activator, single point] |
| CCOC(=O)C1=C(C)NC(C)=C(C(=O)OCC)C1C(=O)OCC(=O)N1CCc2ccccc21 | – | inconclusive: 31.6 µM [activator, single point] |
| COc1cccc(NC(=O)c2oc3ccc(S(=O)(=O)N4CCC5(CC4)OCCO5)cc3c2C)c1 | – | inconclusive: 39.8 µM [activator, single point] |
| CCCCCC(=O)NNC(=O)c1ccc(-c2ccccc2)cc1 | – | inconclusive: 31.6 µM [inhibitor, single point] |
| COc1cc(/C=N/NC(=O)CCc2c(C)n[nH]c2C)cc(OC)c1OC | inactive: 0.315% | – |
| CCOc1cccc(C(=O)Nc2ccccc2N2CCN(C(=O)C(C)C)CC2)c1 | – | inconclusive: 20 µM [activator, single point] |
| CCOc1ccc(NC(C(=O)Nc2cccc(C(C)=O)c2)c2ccccc2)cc1 (configuration not stated) | – | inconclusive: 39.8 µM [inhibitor, single point] |
| CCN(CC)CCCC(C)n1c(-c2ccccc2)nc2c(N(CCOC)CCOC)nc(C)nc21 (configuration not stated) | inactive: -1.49% | – |
| CC(=O)OC(/C(O)=C(\C#N)c1nc2ccccc2[nH]1)c1ccccc1 (configuration not stated) | – | inconclusive: 25.1 µM [activator, single point] |
| COc1cccc(NC(=O)Nc2cc(-c3cn4cccnc4n3)ccc2OC)c1 | – | inconclusive: 39.8 µM [activator, single point] |
| COC(=O)CC1c2ccccc2C(Cc2ccc3c(c2)OCO3)=C(C)N1C(=O)OC (configuration not stated) | inactive: 14.9% | – |
| CCCCN(C(=O)CSc1nnc(-c2ccccc2)n1C)c1c(N)n(Cc2ccccc2)c(=O)[nH]c1=O | – | inconclusive: 31.6 µM [activator, single point] |
| Cc1cc(C)c2nc(NNC(=O)c3ccc(S(=O)(=O)N4CCCC(C)C4)cc3)sc2c1 (configuration not stated) | – | inconclusive: 39.8 µM [inhibitor, single point] |
| COc1ccc(C2CC(c3ccccc3)=NN2C(=O)COC(=O)c2cc(S(=O)(=O)N3CCOCC3)ccc2Cl)cc1 (configuration not stated) | – | active: 12.6 µM |
| COc1ccc(-n2c(SCC(=O)NC3CCCCC3)nc3c([nH]c4ccccc43)c2=O)cc1 | inactive: -3.21% | – |
| Cc1cccn2c(=O)cc(COc3ccc(NC(=O)C(C)Oc4ccccc4)cc3)nc12 (configuration not stated) | – | inconclusive: 39.8 µM [activator, single point] |
| Cc1cc2nc(-c3cccc(NC(=O)c4ccc(Br)o4)c3)oc2cc1C | – | inconclusive: 7.94 µM [activator, full curve] |
| CCn1c(C)cc(/C=C2/NC(=O)N(CC(=O)Nc3cccc(C)c3)C2=O)c1C | – | inconclusive: 10 µM [inhibitor, partial curve] |

| Structure (SMILES) | max response, negative = inhibition | Potency |
| --- | --- | --- |
| COc1ccc(N(CC(=O)Nc2cc(C)ccc2C)S(=O)(=O)c2c(C)nn(C)c2C)cc1 | – | inconclusive: 25.1 µM [activator, single point] |
| Cc1ccccc1NC(=O)Cn1cnc2c1c(=O)n(C)c(=O)n2C | inactive: 13.9% | – |
| CC(=O)Nc1ccc(NC(=O)c2nc(SCc3ccccc3C)ncc2Cl)cc1 | – | inconclusive: 31.6 µM [activator, partial curve] |
| CCOC(=O)COc1ccccc1-c1ccno1 | – | active: 25.1 µM |
| Cc1ccc(C)c2c(SC(C)C(=O)NCc3ccco3)nc(-c3ccccc3)nc12 (configuration not stated) | – | active: 3.98 µM |
| CCOC(=O)CSc1nc2c(sc(=S)n2Cc2ccco2)c(=O)n1-c1ccccc1 | – | inconclusive: 10 µM [inhibitor, partial curve] |
| CCOC(=O)N1CCC(NC(=O)CC(NS(=O)(=O)c2ccc(Cl)cc2)c2ccco2)CC1 (configuration not stated) | – | inconclusive: 31.6 µM [activator, single point] |
| C[N+](C)(C)C(C1=CCCC1=O)c1ccccc1 (configuration not stated) | inactive: 2.94% | – |
| COC(=O)c1cc(OC)c(OC)cc1NC(=S)N1CCN(c2ccccc2)CC1 | – | inconclusive: 39.8 µM [activator, single point] |
| Cc1c(C(=O)NC(Cc2ccccc2)c2nc3ccccc3[nH]2)cccc1[N+](=O)[O-] (configuration not stated) | inactive: -25.4% | – |
| COc1ccc(-c2cc(C(=O)Nc3sc4c(c3C(N)=O)CCC(C)C4)no2)cc1 (configuration not stated) | inactive: -4.04% | – |
| COc1ccc(N2CCN(C(=O)CC(NC(N)=O)c3cccc(Oc4ccccc4)c3)CC2)cc1 (configuration not stated) | – | inconclusive: 31.6 µM [activator, single point] |
| Cc1ccccc1CNC(=O)c1cc2cccc3c2n1CC(C)S3 (configuration not stated) | – | inconclusive: 25.1 µM [inhibitor, single point] |
| COc1cc(NC(=O)COC(=O)CNS(=O)(=O)c2ccc(F)c(F)c2F)cc(OC)c1 | – | active: 25.1 µM |
| Cc1ccc(NC(=O)Cn2cc(C(=O)c3ccco3)c3ccccc32)c(C)c1 | – | inconclusive: 39.8 µM [activator, single point] |
| COC(=O)c1ccc(C23CC4(C2)[C@H](CN(Cc2ccc(-c5ccccc5)cc2)[C@@H]4c2ccccc2)C3c2ccc(Cl)nc2)cc1 (some centres not stated) | – | active: 15.8 µM |
| COc1ccc(/C=C/C(=O)Nc2ccc(Cl)cc2Cl)cc1 | inactive: 3.77% | – |
| N#CC1=C(N)C(C#N)(C#N)C(c2ccncc2)C2CN(C(=O)OCc3ccccc3)CC=C12 (configuration not stated) | – | inconclusive: 39.8 µM [activator, single point] |
| Cc1ccc(NC(=O)c2ccc3c(c2)NC(=O)c2ccccc2S3)cc1 | inactive: 6.12% | – |
| Cc1cc(NS(=O)(=O)c2ccc(NC(=O)COc3ccccc3Cl)cc2)no1 | – | inconclusive: 15.8 µM [inhibitor, partial curve] |
| COc1cc(C)ccc1OCCSc1nc2ccc(NC(=O)c3cccs3)cc2s1 | – | inconclusive: 39.8 µM [inhibitor, single point] |
| CCc1ccc(NC(=O)CSc2nc3c(sc4ccccc43)c(=O)n2CCN(CC)CC)cc1 | inactive: 4.59% | – |
| COc1cc(-c2nnc(-c3cccs3)o2)cc(OC)c1OC | inactive: -0.505% | – |

| Structure (SMILES) | max response, negative = inhibition | Potency |
| --- | --- | --- |
| Cc1c(Cl)ccc2sc(NC(=O)CN3C(=O)c4ccccc4C3=O)nc12 | – | active: 10 µM |
| COc1cccc(Cn2c(=O)c(C)nc3cnc(Oc4cccc(Cl)c4)nc32)c1 | – | inconclusive: 39.8 µM [activator, single point] |
| COc1ccc(-c2noc(CN(C(=O)Cc3ccc(C)cc3)C(C)C)n2)cc1 | inactive: 11.1% | – |
| COCCCNC(=O)c1sc2nc(C)c(C(=O)Nc3ccc(C)cc3C)c(-c3ccc(Br)cc3)c2c1N | – | inconclusive: 12.6 µM [activator, partial curve] |
| CCC(=O)c1cccc2c1N=CC1=C(CC(C)(C)CC1=O)N2 | inactive: -12.2% | – |
| CCCCNC(=O)C(=O)N/N=C/c1cccc(Br)c1 | – | inconclusive: 39.8 µM [inhibitor, single point] |
| Cc1ccc(NC(=O)c2nccnc2C(=O)O)cc1C | inactive: 4.2% | – |
| CN(C)c1ccc(CNC(=O)CN2C(=O)CCn3nc(-c4cn(C)c5ccccc45)cc32)cc1 | – | inconclusive: 39.8 µM [activator, single point] |
| Cc1ccc(-n2c(COc3c(C)cccc3C)nnc2SCC(=O)Nc2nccs2)cc1 | – | active: 25.1 µM |
| Cc1cc2oc(=O)cc(CSc3nc(N)cc(N)n3)c2cc1C(C)C | – | inconclusive: 31.6 µM [inhibitor, single point] |
| CCc1ccc(C(=O)CSc2nc(-c3ccccc3)nc3c2CCCC3)cc1 | inactive: -1.29% | – |
| COc1ccc2c(Sc3ccccc3)c(C(=O)N3CCC(C)CC3)[nH]c2c1 | – | inconclusive: 31.6 µM [activator, single point] |
| Cc1ccc(NC(=O)CCCN2C(=O)COc3ccc(C)cc32)c(C)c1 | inactive: -0.316% | – |
| Cc1ccc([N+](=O)[O-])c(Oc2ncnc3c2oc2ccccc23)c1 | inactive: 0.817% | – |
| Cc1ccc(S(=O)(=O)N2CCOCC2)cc1NC(=O)COC(=O)CNC(=O)c1ccccc1 | – | inconclusive: 39.8 µM [inhibitor, single point] |
| COC(=O)c1c(C)[nH]c(O)c1C=Nc1ccc(C(C)C)cc1 | – | inconclusive: 25.1 µM [activator, single point] |
| Nc1c(C(=O)NCc2ccccc2)sc2nc(N3CCOCC3)c3c(c12)CCCC3 | – | inconclusive: 31.6 µM [inhibitor, single point] |
| CCOC(=O)c1sc(N/N=C/c2cccc(C)c2)nc1C | – | inconclusive: 0.794 µM [inhibitor, partial curve] |
| CCOC(=O)N1CCN(C(=O)Cc2ccc(Cl)cc2)CC1 | inactive: -1.51% | – |
| C/C(=N\Nc1nc2ccccc2[nH]1)c1cccs1 | – | active: 25.1 µM |
| O=C(C1CCN(S(=O)(=O)N2CCC3(CC2)OCCO3)CC1)N1CCC(Cc2ccccc2)CC1 | – | inconclusive: 39.8 µM [activator, single point] |
